Whole data set: some 16,000 sequences, median “Z-score” near -0.37, cut for the highest 2% near 3.2. The list shows a part of the results.
tested on: RBM10 RRM1-ZnF (GST-tagged construct); assay: RNAcompete 7-mer binding Z-score; higher = stronger binding preference
Method in brief: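 Bound RNA was identified by microarray hybridisation after GST-tagged RBM10 constructs (20 pmol) had been mixed with 1.5 nmol of a designed pool of 241 399 RNAs up to 41 nt, transcribed from microarray-derived DNA templates. Binding ran for 30 min at 4°C in 1 ml Hepes pH 7.8 buffer with KCl, NaCl, glycerol, DTT, BSA and glutathione Sepharose beads, with four 2-min washes at 4°C afterwards. For every heptamer motif, a one-sided Z-score for enrichment was computed across the probes that contained it.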

Row | Sequence | RNAcompete 7-mer binding Z-score
1 | UACGGCU | -0.308
2 | GGUUCUA | -0.162
3 | UGGCACC | 0.0723
4 | CUAGUAU | -0.37
5 | UUCCCCA | -0.633
6 | GUUUCGU | -0.191
7 | GCUGCCC | -0.24
8 | GCUCGGU | -0.129
9 | GCAUGCU | -0.613
10 | UGUAGGA | 1.7
11 | UCGCCGA | -0.668
12 | CUGCAAU | -0.724
13 | AAUGCAA | -0.139
14 | AUACAAA | -0.435
15 | GGCAAUC | -0.171
16 | CGGUAUU | 0.179
17 | ACCUGGC | -0.613
18 | CAAAGAU | -0.347
19 | AGUCCCC | -0.357
20 | CGACACU | -0.587
21 | UUAUGGU | 0.537
22 | UAAGCUA | -0.347
23 | AAUUUGU | -0.571

Row | Sequence | RNAcompete 7-mer binding Z-score
24 | GCUAACA | -0.399
25 | UGAUGUG | 0.829
26 | CGCUUUC | -0.789
27 | GUGCCGC | -0.0837
28 | AGUUCGU | -0.422
29 | AUGGACC | 0.16
30 | UUGGUCU | -0.217
31 | AUUUACU | -0.73
32 | GCGAUCC | -0.857
33 | GUUCCUG | -0.607
34 | UCUUAAU | -0.678
35 | CCUAUUG | -0.474
36 | CAGUCUU | -0.925
37 | UUUUGUC | -0.581
38 | GGGUACA | 2.7
39 | AACAUAG | 0.03
40 | UACAACG | -0.0934
41 | AACGGCA | 0.42
42 | GUAUCCC | -0.552
43 | GAGUGAA | 1.07
44 | UUAGCCA | -0.694
45 | AGCAGUG | 0.543
46 | CGUGGUU | 1.01

Row | Sequence | RNAcompete 7-mer binding Z-score
47 | GCCUAGU | -0.337
48 | ACUCUUU | -0.844
49 | UGUACUG | -0.275
50 | UGGCUUG | 0.14
51 | UUUCUAC | -0.863
52 | AAUACUU | -0.756
53 | UCAUAUA | -0.487
54 | ACAUCCA | -0.72
55 | AUGCGAU | 0.0138
56 | ACCGAAA | -0.733
57 | AUGCUUC | -0.746
58 | GCAUCCG | -0.412
59 | AACACAU | -0.415
60 | GCCGGGU | 1.49
61 | CAGAAGU | -0.0414
62 | ACAUACU | -0.513
63 | UCACCAU | -0.909
64 | GUGCGUU | 0.173
65 | ACUCGCC | -0.74
66 | CCAAAGC | -0.867
67 | AGAGAAC | -0.139
68 | GCUCAUG | -0.454
69 | CACUGUU | -0.574

Row | Sequence | RNAcompete 7-mer binding Z-score
70 | AUCUAAG | -0.451
71 | CCCCAGU | -0.438
72 | UUGAGAA | 0.231
73 | CGUAUCA | -0.629
74 | UCUACGU | -0.662
75 | CGUAUAU | -0.35
76 | GGGAAUA | 3.09
77 | CUCGAAU | -0.62
78 | CGCGGAU | 0.514
79 | CUCUUGU | -0.811
80 | UUGAGCU | -0.444
81 | AAGCUUU | -0.727
82 | GUAGUAG | 0.868
83 | AUAACGA | -0.61
84 | AGGCGGC | 0.15
85 | CUUGCGU | -0.542
86 | CCACUGC | -0.366
87 | GGAAACU | 0.404
88 | AGUUUAG | 0.0235
89 | AAUCAAA | -0.425
90 | UGACUAU | -0.435
91 | GGCCGAG | 0.462
92 | CGCCUUG | -0.451

Row | Sequence | RNAcompete 7-mer binding Z-score
93 | CAUGUAA | -0.308
94 | GGGCCUC | 0.03
95 | GCUCCCA | -0.574
96 | UGUAUUA | -0.428
97 | CAUAAUA | -0.766
98 | GUGUGCA | 0.371
99 | GAUACCU | -0.704
100 | GAUGAGC | 0.894
101 | UCGCAUC | -0.707
102 | ACUUAUA | -0.685
103 | CCGGAUA | -0.126
104 | CACACAC | -0.555
105 | UGGAAAG | 2.84
106 | GAGCCUG | -0.539
107 | GCCGAUA | -0.467
108 | GUUCAAC | -0.457
109 | UGCAUCU | -0.802
110 | GUCCCCG | -0.282
111 | ACGUUAA | -0.376
112 | UACCGCG | -0.246
113 | CGCUAAG | -0.418
114 | UAUACCU | -0.753
115 | GCCCGGA | -0.331

Row | Sequence | RNAcompete 7-mer binding Z-score
116 | GGUGCUA | 1.43
117 | GUUUACG | -0.386
118 | AUAUGAU | -0.0512
119 | GAAUAGU | 0.137
120 | ACGCUGC | -0.412
121 | CCAACCA | -0.672
122 | GGUGGUG | 3.56
123 | UCCUAUA | -0.727
124 | CUGCUCU | -0.798
125 | CCAUUGC | -0.818
126 | UGUCGCA | -0.5
127 | ACUGGAG | 1.2
128 | CUACGAG | -0.383
129 | GUUCUCA | -0.561
130 | UUUCGGU | -0.162
131 | CUCAUCA | -0.737
132 | UAUUAAU | -0.496
133 | AGGAACG | 1.28
134 | UAGAUUA | -0.318
135 | GGCUGGA | 0.969
136 | CGUCCUU | -0.772
137 | GAUGUUC | -0.704
138 | AAGUUAG | 0.469

Row | Sequence | RNAcompete 7-mer binding Z-score
139 | GGCGCAG | 1.23
140 | GCACAUC | -0.451
141 | AAGGAAC | 2.26
142 | GUGCUUU | -0.558
143 | AGUCUUA | -0.753
144 | AGGUGGC | 1.44
145 | UUACGCA | -0.584
146 | AUUCCAU | -0.73
147 | CGCGGCU | -0.139
148 | UGAGCGG | 2.38
149 | UGAGCUU | -0.451
150 | UAUAUGA | -0.337
151 | UUUCAAU | -0.73
152 | CCACGCC | -0.519
153 | GUUAACC | -0.383
154 | GGCAGCG | 1.25
155 | CCGUCAC | -0.746
156 | CGCCCGC | -0.431
157 | GUACAAU | -0.126
158 | UCUAGCC | -0.789
159 | GCUUGGU | 0.0885
160 | UAGAACG | 0.03
161 | CGCAUGC | -0.402

Row | Sequence | RNAcompete 7-mer binding Z-score
162 | GUGAGUC | 0.27
163 | AACGGAG | 1.94
164 | CAAGAGG | 0.914
165 | CCAUACC | -0.792
166 | CUUUGAC | -0.867
167 | ACACAGU | -0.311
168 | AUGAUUC | -0.552
169 | AAAACAA | -0.0902
170 | UGAAACA | -0.298
171 | UAGCUGA | 0.0528
172 | CCGGCAA | -0.548
173 | AUAAACC | -0.597
174 | AUGCCCA | -0.535
175 | GGCUAUA | 0.0105
176 | GGGGACU | 2
177 | CGUGCCA | -0.418
178 | UCCACCA | -0.672
179 | GUCCUUG | -0.483
180 | CUACAAG | -0.483
181 | AGACCAU | -1.03
182 | AACAGGC | 0.797
183 | GCGGGAC | 1.51
184 | UCGAUUA | -0.578

Source: the supplement of paper PMC5499739
